Source: PubChem BioAssay AID1030 (National Center for Advancing Translational Sciences (NCATS), 2008)
Out of some 220,000 compounds screened, about 16,000 (7.3%) were called active. The inconclusive results got no clear call from the source; some entries with a clear call stand among them for comparison. Calls follow the shape of the dose curve; as a rule, active = well fitted inhibition curve with a large enough effect (not every such curve was filed as active); inconclusive = small, poorly fitted or top-dose-only effect, or another doubt; inactive = no such curve, though single readings can be large or run the other way. Potencies of inconclusive entries are left out as doubtful fits.

Molecular target: Aldehyde dehydrogenase 1A1 (Homo sapiens) (UniProt P00352)
UniProt P00352, sequence (P00352 whole entry, looked up): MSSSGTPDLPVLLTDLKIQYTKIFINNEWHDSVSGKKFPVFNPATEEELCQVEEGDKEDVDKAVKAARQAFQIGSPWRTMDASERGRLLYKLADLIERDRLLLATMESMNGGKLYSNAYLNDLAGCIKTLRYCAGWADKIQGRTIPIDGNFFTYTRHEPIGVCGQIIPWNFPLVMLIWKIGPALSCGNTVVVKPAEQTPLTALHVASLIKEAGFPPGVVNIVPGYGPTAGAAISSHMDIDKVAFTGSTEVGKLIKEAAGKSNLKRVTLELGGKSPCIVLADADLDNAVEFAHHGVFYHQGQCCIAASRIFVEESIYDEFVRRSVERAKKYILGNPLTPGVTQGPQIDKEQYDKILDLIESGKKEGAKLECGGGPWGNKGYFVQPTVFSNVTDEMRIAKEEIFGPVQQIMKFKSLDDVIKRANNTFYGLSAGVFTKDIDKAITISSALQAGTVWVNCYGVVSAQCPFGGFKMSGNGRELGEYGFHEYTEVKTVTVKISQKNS
Assay: qHTS Assay for Inhibitors of Aldehyde Dehydrogenase 1 (ALDH1A1);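 as to activity, negative = inhibition: plate controls were no enzyme wells and a reference inhibitor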
Conditions: Purified ALDH1A1, NADH fluorescence, propionaldehyde substrate; series mostly up to 75.3 µM; activity, negative = inhibition: at the top concentration
Potency is read from the fitted curve at half-maximal effect; tags tell the direction and shape of the fitted curve.

SMILES | activity, negative = inhibition | Potency
CCC(C)c1ccccc1OCCCCN1CCCC1 (centres undefined) | inactive: -4.55% | 
CCOc1cccc(C(=O)NC(=S)Nc2cccc(C)c2)c1 |  | active: 8.91 µM
O=C(c1ccco1)N1CCC2(CC1)CCN(c1ccncc1)CC2 |  | active: 7.08 µM
O=[N+]([O-])c1cc(C(F)(F)F)ccc1NCCc1c[nH]c2ccccc12 | inactive: -6.3% | 
O=C1OC2(CCCC2)OC(=O)C1=Cc1c[nH]c2ccccc12 | inactive: -15.9% | 
COc1ccc(NS(=O)(=O)c2cc(C)ccc2NC(=O)c2cc(C)oc2C)cc1 |  | active: 7.94 µM
CCOC(=O)c1c(-c2ccc(Cl)cc2)cn2ccccc12 |  | inconclusive [inhibitor, partial curve]
CN1CCN(S(=O)(=O)c2cc([N+](=O)[O-])ccc2N2CCCCCC2)CC1 |  | inconclusive [inhibitor, single point]
Cc1ccc(-c2ccc(CCC(=O)O)n2Cc2ccco2)cc1 |  | inconclusive [inhibitor, single point]
CC1(C)CC(=O)C(N=Nc2ccc3ncsc3c2)=C(O)C1 |  | active: 4.47 µM
Cc1c(N=C2C(=O)Nc3ccccc32)c(=O)n(-c2ccccc2)n1C |  | inconclusive [inhibitor, single point]
COc1cc2c(cc1OC)C1=NC(=O)CN1C(SCc1ccccc1C)=N2 |  | inconclusive [inhibitor, partial curve]
COc1ccccc1C1CCN(c2cc(O)ccc2[N+](=O)[O-])CC1 | inactive: -2.2% | 
CCCCCOC(=O)Nc1nnc(CCC)s1 |  | inconclusive [inhibitor, full curve]
Cc1cc(C)nc(N2CCCC(C(=O)NC(C)CCc3ccco3)C2)n1 (centres undefined) |  | inconclusive [inhibitor, partial curve]
CCCCCCc1ccc(-c2ccc(C#N)cc2)cc1 | inactive: 7.96% | 
CCCc1cc(=O)[nH]c(SCC(N)=O)n1 |  | inconclusive [inhibitor, single point]
COc1ccc(NC(=O)CSc2cc(C)ccc2C)cn1 |  | inconclusive [inhibitor, single point]
CCCCn1c(-c2sccc2C)n[nH]c1=S |  | inconclusive [inhibitor, single point]
Fc1ccc(C(c2nnnn2Cc2ccco2)N2CCN(C3CCCCC3)CC2)cc1 (centres undefined) |  | inconclusive [inhibitor, single point]
O=C(NCc1ccccc1)C(c1ccccc1)N(Cc1ccc2c(c1)OCO2)C(=O)Cc1cccs1 (centres undefined) |  | inconclusive [inhibitor, full curve]
Cc1ccc(Cn2nnc3c(=O)[nH]c(C4CCCN(C(=O)Nc5ccc(F)cc5F)C4)nc32)cc1 (centres undefined) |  | inconclusive [inhibitor, single point]
Nc1nn2cc(-c3ccccc3)nc2c2ccccc12 |  | inconclusive [inhibitor, partial curve]
CC(C)(CSc1ncccn1)NS(=O)(=O)c1ccccc1 |  | inconclusive [inhibitor, partial curve]
Cc1ccc(C)c(C(=O)COC(=O)c2cc([N+](=O)[O-])ccc2NCCO)c1 |  | inconclusive [inhibitor, single point]

SMILES | activity, negative = inhibition | Potency
O=C(Nc1ccc(Cl)cc1)N(CCCN1CCOCC1)Cc1cccs1 | inactive: -9.12% | 
COC(=O)CSc1nnc(CNc2ccc(F)cc2)o1 | inactive: 7.05% | 
O=C(CNCc1ccc(F)cc1)Nc1ccccc1-c1ccccc1 |  | inconclusive [inhibitor, single point]
Clc1ccc(-c2nnc(C3CCCCC3)o2)cc1 |  | inconclusive [inhibitor, partial curve]
O=C(Nc1cc(=O)[nH]c2ncnn12)c1ccccc1F | inactive: -5.22% | 
Cc1cc(NS(=O)(=O)c2ccc(Nc3nc(-c4sc(N)nc4C)cs3)cc2)no1 | inactive: 0.786% | 
O=C(c1ccc2c(c1)C(=O)N(Cc1ccco1)C2=O)N1CCOCC1 |  | inconclusive [inhibitor, single point]
COc1ccccc1/C=N/NC(=O)c1ccc(-c2ccccc2)cc1 | inactive: 2.98% | 
c1ccc2c(CCNc3ncnc4nc[nH]c34)c[nH]c2c1 | inactive: 12.8% | 
COc1ccc(NC(=O)C2=C(C)NC(=S)NC2c2ccc(O)c(OC)c2)cc1 (centres undefined) |  | inconclusive [inhibitor, full curve]
Cc1ccc2sc(NNC(=O)c3cc(=O)c4ccccc4o3)nc2c1C |  | active: 12.6 µM
COc1ccc2nc(-c3ccco3)c(-c3ccco3)nc2c1 |  | inconclusive [inhibitor, partial curve]
CCOC(=O)C1CCCN(C2CC(=O)N(c3ccccc3)C2=O)C1 (centres undefined) |  | inconclusive [inhibitor, single point]
CCCCNc1nc(C)nc2c1nc(-c1ccccc1)n2CCN(C)C |  | inconclusive [inhibitor, partial curve]
COC(=O)C1=C(C)NC(C)=C(C(=O)OC)C1c1ccc(NC(C)=O)cc1 |  | inconclusive [inhibitor, single point]
Cn1c(C(=O)N2COCC2(C)C)cc2c(=O)n3ccccc3nc21 |  | inconclusive [inhibitor, partial curve]
CN1CCN(c2nc(-c3ccccc3)ncc2S(=O)(=O)c2ccccc2)CC1 |  | active: 14.1 µM
CCOC(=O)N1CCC(NC(=O)CCc2c(C)nc3ncnn3c2C)CC1 | inactive: 13.8% | 
CSCC(=O)N1CCCC(CNC(=O)c2ccc(-c3ccccc3)cc2)C1 (centres undefined) |  | active: 3.98 µM
COc1ccc(C2=NOC(C(=O)Nc3ccc(C)cc3)C2)cc1OC (centres undefined) | inactive: -10.8% | 
Cc1ccc(C(C)C)c(OCc2nn(CC(=O)c3ccc(OC(F)F)cc3)c3[n+]2CCCCC3)c1 | inactive: 1.71% | 
O=C(COC(=O)c1ccc(CO)cc1)NCc1cccs1 | inactive: 4.74% | 
COc1cc(/C=N/NC(=O)CC23CC4CC(CC(C4)C2)C3)cc(Br)c1OCC(=O)N(C)C |  | inconclusive [inhibitor, partial curve]
Cc1ccc(C)c(C(C)NC(=O)c2ccccc2Br)c1 (centres undefined) | inactive: 2.81% | 
O=C(CSc1nc2sc3c(c2c(=O)[nH]1)CCCC3)NCCO |  | inconclusive [inhibitor, single point]

SMILES | activity, negative = inhibition | Potency
CN(Cc1ccco1)c1ncncc1-c1ccccc1Cl |  | inconclusive [inhibitor, partial curve]
O=C(NCC1CCCO1)c1nn2c(c1Cl)NC(c1ccc(F)cc1)CC2C(F)(F)F (centres undefined) | inactive: 2.08% | 
COc1ccc(-n2nc3cc(C)c(NC(=O)CC(C)C)cc3n2)cc1 |  | inconclusive [inhibitor, single point]
O=C(N/N=C/C=C/c1ccccc1[N+](=O)[O-])c1cc(-c2cccnc2)nc2ccccc12 |  | active: 14.1 µM
COc1ccc(C(=O)NCc2nnc(SCC(=O)Nc3cccc(C(F)(F)F)c3)o2)cc1OC |  | inconclusive [inhibitor, partial curve]
CS(=O)(=O)N1CCN(C(=O)c2cc3ccccc3oc2=O)CC1 |  | inconclusive [inhibitor, partial curve, poor fit]
CC(=O)C1(C)N(O)C(C)(C)C(c2cccs2)=[N+]1[O-] (centres undefined) |  | inconclusive [inhibitor, single point]
CCOC(=O)c1ccccc1NC(=O)c1cc(S(=O)(=O)N2CCOCC2)ccc1F | inactive: -4.3% | 
COc1cc(/C=N/NC(=O)C(Cc2c[nH]c3ccccc23)NC(=O)OCC(C)C)cc([N+](=O)[O-])c1O (centres undefined) |  | inconclusive [inhibitor, single point]
Cc1ccc(C2NC(=O)c3sc(=S)n(-c4ccccc4)c3N2)cc1 (centres undefined) |  | inconclusive [inhibitor, single point]
CC(=O)Cc1nsc(NC(=O)c2ccccc2Cl)n1 |  | inconclusive [inhibitor, partial curve]
O=C(O)CSSCC(=O)O | inactive: -3.91% [at 13.5 µM] | 
O=C(c1ccc(F)cc1)n1ccc(-c2cnc(-c3ccccc3)s2)n1 |  | inconclusive [inhibitor, full curve]
O=C(CN1C(=O)/C(=C\c2ccccc2Cl)Oc2ccccc21)NCc1cccnc1 |  | active: 3.98 µM
N=c1scc(-c2ccccc2)n1/N=C/c1ccco1 |  | active: 22.4 µM
c1cc(NNc2cccc(-c3nn[nH]n3)c2)cc(-c2nn[nH]n2)c1 |  | inconclusive [inhibitor, single point]
O=C(C[n+]1ccccc1)N/N=C/c1cccs1 | inactive: 5.79% | 
CC(NC(=O)CSC(=S)N(C)C)C12CC3CC(CC(C3)C1)C2 (centres undefined) |  | active: 12.6 µM
CCN(Cc1ccccc1)C(=O)c1c[nH]c2ccc(S(=O)(=O)N(C)CCC#N)cc2c1=O |  | inconclusive [inhibitor, single point]
CCc1ccc(-c2cc(C(=O)NN3CCOCC3)c3ccccc3n2)s1 |  | inconclusive [inhibitor, partial curve]
Cn1c(=O)c(C(=O)Nc2ccccn2)c(O)c2ccccc21 |  | inconclusive [inhibitor, single point]
COc1ccc(/C=C/C(=O)NCCC(=O)N2CCCN(C)CC2)cc1 |  | inconclusive [inhibitor, single point]
COc1cc2[nH]c(=O)n(CCCC(=O)N3CC=C(c4ccccc4)CC3)c(=O)c2cc1OC |  | inconclusive [inhibitor, partial curve]
CCn1c(CCn2c3ccccc3c3ccccc32)n[nH]c1=S |  | active: 28.2 µM
